Data published in the supplement of paper PMC3334620.
Whole data set: some 33,000 sequences, median “E-score (-0.5 to 0.5)” near -0.016, cut for the highest 2% near 0.32. The list shows a part of the results.

Target: T1, Stp1 (UniProt B3LFK1)
T1 sequence: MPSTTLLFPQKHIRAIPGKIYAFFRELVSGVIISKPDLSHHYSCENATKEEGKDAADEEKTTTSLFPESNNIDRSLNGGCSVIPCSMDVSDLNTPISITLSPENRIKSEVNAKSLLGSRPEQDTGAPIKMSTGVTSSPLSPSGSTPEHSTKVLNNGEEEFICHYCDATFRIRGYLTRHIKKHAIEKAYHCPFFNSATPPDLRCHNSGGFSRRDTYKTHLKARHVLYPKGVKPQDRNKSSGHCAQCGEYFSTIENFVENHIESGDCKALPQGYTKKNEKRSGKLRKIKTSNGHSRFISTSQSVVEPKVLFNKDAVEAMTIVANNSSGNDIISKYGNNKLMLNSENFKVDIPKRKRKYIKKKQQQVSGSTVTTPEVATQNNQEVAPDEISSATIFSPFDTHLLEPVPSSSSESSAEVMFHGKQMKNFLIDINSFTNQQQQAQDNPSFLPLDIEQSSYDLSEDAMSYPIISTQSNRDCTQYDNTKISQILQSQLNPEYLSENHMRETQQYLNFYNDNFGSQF
Experiment: PBM E-score (8-mer binding enrichment) (E-score (-0.5 to 0.5)); higher = stronger / more preferred TF binding; most listed sequences are background and not binding sites
Details: protein concentration: 200 nM; construct: GST-full length
In short: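 Universal all-10-mer Agilent arrays, fresh or stripped once, were converted to double-stranded form by primer extension. GST-tagged yeast transcription factors from PURExpress in vitro transcription/translation, full-length or DNA-binding domain only, were applied at about 100-200 nM and detected with fluorescent anti-GST. After masliner normalisation, the Universal PBM Analysis Suite scored each ungapped eight-base word together with its reverse complement by E-score.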

Sequence	PBM E-score
CATACTAC	0.0425
AGAAACGG	0.278
GCTGATTA	0.143
GACGCGTA	0.0229
AGTACACG	0.131
AACCACGT	-0.0804
ACTCCTGA	0.0315
CCAGTTGA	0.0606
GAGAAAGC	0.114
GATAGATC	-0.135
CACTCGGA	0.0142
ACCCCGCT	-0.174
TACCTGCA	-0.0603
ATGTCCCA	-0.161
GGATGCTA	-0.149
ATTCCAAG	0.0348
CCGCTACC	-0.0466
ACCCAAAT	0.163
GATAGGGA	-0.171
AGACACTA	0.0195
ATGTGGTC	-0.121
TAAGTGCA	0.0837
AATCATAA	0.0159
CAATTTAG	0.0614
TCTCATAA	0.0161

Sequence	PBM E-score
CGGGTCGC	-0.0247
TAGGTAAA	0.0893
TGTAGAAA	0.0375
AAGTCTAA	-0.151
ATTCGCGG	0.192
ACATCTCC	-0.208
ATGCTCAC	-0.251
CCTTCGCC	0.118
CTCCTACA	-0.156
CCGGATTC	-0.134
CATACAAC	0.0945
AACCTGGA	-0.137
CCCCTCAG	-0.336
TGCTACAA	0.0595
AACCACTT	-0.046
AGCTTCCC	-0.393
CATCCTTC	-0.165
CGGTATAG	-0.184
TACGCCCA	-0.0659
AAACAATT	0.159
AAACGGTG	0.1
CTTAATGC	0.181
CTAATTAA	0.0857
GGACGGCC	0.16
AACAATAT	0.302

Sequence	PBM E-score
ACAAACCC	-0.0458
AGGGGAGC	-0.195
CACCGGAG	-0.0522
GCTAAAAC	0.0711
CGCCTCAC	0.395
CAGAGTTC	-0.0264
CCCGCTAG	-0.266
AGTGCCGA	0.322
GAGATAGC	-0.111
GAACTTCA	-0.0508
GGTGTCAA	-0.03
TTCGGAAA	0.0851
CAACCAAC	-0.103
AGCCTCCA	-0.184
ATTAGATA	0.11
GAATTTCA	-0.153
CTCATTGC	0.092
CCCTCTCG	-0.378
CCAGGCAC	-0.174
AGTATTGC	0.012
CTCTGCGC	0.0316
GGTACAAC	-0.0615
CTAGCCTA	-0.0144
CCTGACGA	0.131
CGCCCTTC	0.156

Sequence	PBM E-score
TAGCGTAA	0.0549
AGGACGGG	-0.271
GAAGGAAA	0.0243
GCAGTTAA	0.0839
ATTCCTTG	0.0722
TCCTACCA	-0.213
ACATCTAC	-0.0357
GGGTTCGA	-0.163
TGAGGGCA	-0.154
GGGTCAAC	-0.153
AACGCTGT	0.137
AGCCGCAC	0.42
CATCGTTC	0.0739
AACGTCAG	-0.229
CAAATGCG	0.117
ATTGAACC	-0.0807
AATATCCC	-0.0616
ATTAGGGC	-0.0698
CCAAAAAA	0.252
GCTCCCCC	-0.314
AGGCTGAT	-0.155
CGTTGGGC	-0.137
GAACTCTA	-0.0132
GGAGCGAC	-0.102
GGGCATAA	0.0801

Sequence	PBM E-score
ACTCTTGA	-0.0263
TCAATTAA	0.238
ATAACTCA	-0.0274
CTCTTTAA	-0.0371
GAACGTAC	0.0539
ACGCATCG	0.0171
GTGATCTA	0.0423
CATACGTA	0.209
ACCACATA	0.153
GCTAGGTA	-0.121
TCCCACGA	-0.0504
CCGGACTA	0.0944
TAAACGCA	-0.0863
AGATGAAT	-0.155
AGGGTAAG	-0.163
AACAAATA	0.279
ATTACACG	0.152
CACACGAC	-0.0216
AAGTTGTG	0.0756
CGGCATAC	0.27
AAAAACGT	-0.111
AGGCTTAC	-0.116
ATCGAAGG	0.0854
GTGTGAAA	0.185
GTAGTACA	0.0272

Sequence	PBM E-score
ATCACGAT	-0.0303
GGACAGGA	-0.174
ACGCTAAG	0.00258
CATCCACA	-0.0242
CGACCATC	-0.168
ATGTGCTA	-0.0142
AACTTGAG	-0.221
AGTAACTC	-0.137
GTCCCACA	-0.222
ACGCTTTA	-0.211
TAATCTGA	-0.0381
CAGGTCAC	-0.288
CGATTTCC	-0.0263
CTATCTGA	-0.196
GCCGTCGC	0.351
GGCAGATA	-0.0304
CCCACCGA	-0.24
AGTGTGGG	-0.13
AGCAAAGG	0.117
GGCGATTA	0.29
AATGCTAA	-0.0111
CAGGCGAC	-0.138
ACGCAGAG	-0.0454
GGTTAAGA	0.0755
ACATGACC	-0.252

Sequence	PBM E-score
TCAGATCA	-0.0247
GTACGAGA	0.019
AGTAAGAC	-0.0276
GGTGAAAC	0.0103
CTTGTCCC	0.0187
ATTTCGAA	0.151
GAAACTCC	-0.192
CTTTTATC	0.0442
AGGTCAAG	-0.223
CCCGCTTA	0.0273
GCAGCTCC	-0.235
CGTAACGC	0.124
CAGCCATG	0.0668
AGCAAATA	0.111
GGCTCTAA	0.177
CAAGGGTC	-0.138
AAGCTATA	0.106
GTTGCGTA	0.0808
CGAAATAC	0.11
AACGGAGT	0.106
ACGTAAGC	-0.088
CGAGGTGC	0.0197
